Source: PubChem BioAssay AID1794842 (National Center for Advancing Translational Sciences (NCATS), 2023)
Fewer than 10 of roughly 2,800 compounds were called active. Calls come from the whole dose curve; as a rule, active = well fitted curve in the direction sought with a large enough effect; inconclusive = small, poorly fitted or top-dose-only effect, or another doubt; inactive = no such curve, though single readings can be large or run the other way. The list shows a part of the results.

The compounds below were run against Metallo-beta-lactamase type 2 (Klebsiella pneumoniae) (UniProt C7C422) (assay: qHTS to identify inhibitors of the New Delhi Metallo-beta-lactamase (NDM): Meropenem screen against the machine-based learning selections.). Conditions: Purified NDM-1, meropenem hydrolysis, absorbance 300 nm; at 38.4 µM (top of the series) unless noted.
In short: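 Hydrolysis by 2 nM NDM-1 was followed by absorbance after >30 min compound preincubation in HEPES pH 7.0 buffer with 1 uM Zn2SO4. For nitrocefin (16.7 uM, 15 min, 485 nm) and meropenem (50 uM, 30 min, 300 nm), each substrate ran on separate plates.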
Note: % of control where 0% means no effect.

Sequence of UniProt C7C422 (C7C422 whole entry, looked up): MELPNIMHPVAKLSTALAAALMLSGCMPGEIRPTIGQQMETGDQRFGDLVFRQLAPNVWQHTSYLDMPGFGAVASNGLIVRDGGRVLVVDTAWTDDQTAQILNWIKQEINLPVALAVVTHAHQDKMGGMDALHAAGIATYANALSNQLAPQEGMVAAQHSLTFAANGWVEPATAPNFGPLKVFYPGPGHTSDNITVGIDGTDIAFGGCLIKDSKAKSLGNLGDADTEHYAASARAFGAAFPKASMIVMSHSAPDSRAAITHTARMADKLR

Activity change, negative = inhibition, inactive:
O=S(=O)(c1cc(F)ccc1F)N1CCCC1c1nncn1Cc1ccncc1 (configuration not stated) 6.9%, COCCNC(=O)Cc1c[nH]c2ncc(-c3ccccc3)cc12 6.33% [at 57.5 µM], O=c1cc(-c2ccccn2)oc2c(-c3ccc(CO)cc3)nccc12 12.7% [at 57.5 µM], CC(=O)N1CCN(C(=O)C[C@@H]2c3nc(NC(=O)C4CCCCC4)sc3C[C@@H]3[C@](C)(CO)[C@H](O)CC[C@]32C)CC1 1.18%, c1ccc(-c2cnc(Nc3ccncc3)c3c2CCO3)cc1 10.6% [at 76.7 µM], COCCNC(=O)C[C@@H]1C[C@@H](C(C)C)[C@H](CNS(=O)(=O)c2ccc(OC)cc2)C=C1C 0.436%, CN(Cc1ccccc1)C(=O)[C@@H]1Cc2nc[nH]c2CN1 -0.524% [at 76.7 µM], CN(C)c1cccc(NC(=O)Cc2c[nH]c3ncc(-c4cccnc4)cc23)c1 5.13% [at 57.5 µM], CNC(=O)C1(N2CCC[C@H]2C(=O)N2CCCC2)COC1 0.305% [at 76.7 µM], Cc1noc(-c2cn(C3CCN(C(=O)c4ccccc4Cl)C3)nn2)n1 (configuration not stated) -1.22%, CC(=O)N1CCN(c2cc(-c3noc([C@@H]4CCCN4Cc4ccccc4C)n3)ccn2)CC1 3.34%, Cc1ccc2oc(C(=O)N(C)Cc3nc(-c4cccnc4)no3)c(C)c2c1 -3.19%, O=C(NCCCn1ccnn1)[C@H]1CNC[C@@H](C(=O)N2CCCC2)C1 -0.274%, CC(=O)c1cc(CC(=O)N2CCC3(CCCN(C(C)C)C3=O)C2)cs1 (configuration not stated) 3.7%, CC(C)C[C@@H]1N[C@H](C(=O)O)Cc2cn(CC3CC3)c3cccc1c23 58.8% [at 57.5 µM], O=c1[nH]c(N2CCOCC2)nc2c1CCN(Cc1ccc(C(F)(F)F)cc1)CC2 3.98%, COc1ccc2nc([C@H]3CCN(C4CCN(C(C)=O)CC4)C3)[nH]c2c1 -2.57% [at 57.5 µM], CN(CCc1nc2ccc(Cl)cc2[nH]1)c1cc(C2CC(O)C2)nc(N)n1 (configuration not stated) -2.51%, OC(c1ccccc1)c1nc(Nc2ccc3c(c2)OCO3)n[nH]1 (configuration not stated) 6.75% [at 57.5 µM], Cc1csc(NC(=O)[C@@H]2CCC[C@@H](NCC3CC3)CN(C)C(=O)C2)n1 2.25% [at 57.5 µM], Clc1ccccc1C1(c2ccnc(NCCc3cccnc3)n2)CCNCC1 52%, O=C(Nc1cccnc1)c1ccnc(-c2nnc3ccc(N4CCOCC4)nn23)c1 16.9% [at 57.5 µM], O=C(N[C@@H]1CN(C(=O)Nc2ccccc2)CCC[C@H]1O)c1ccc(OCCN2CCOCC2)cc1 4.48%, COCCOc1ccnc(-c2noc([C@@H]3CCCN3CC3CC3)n2)c1 -6.12% [at 57.5 µM], O=C(Cc1c[nH]c2ncc(-c3cccnc3)cc12)NCc1ccccc1 2.84% [at 57.5 µM], Cc1ncc2n1C(=O)N(C1CCN(Cc3cccnc3)CC1)C2 11.4% [at 57.5 µM], O=c1cc(-c2ccncc2)oc2c(-c3cccc(CO)c3)nccc12 8.35% [at 57.5 µM], O=C(Nc1cccc(F)c1)N1C[C@@H]2C[C@H](C1)c1c(-c3cc4ccccc4s3)ccc(=O)n1C2 3.89%, CC1=C[C@@H](CO)[C@H](C(C)C)C[C@H]1Cc1nnc(C(C)(C)C)o1 -1.22% [at 57.5 µM], CC(NC(=O)c1ccc2cccc(F)c2n1)c1ccccc1-n1cccn1 (configuration not stated) -0.675%, C[C@@H](Nc1ccc(-c2nc(CCCc3ccccc3)no2)cn1)C(N)=O 13.1%, O=C(Nc1ccc(F)cc1)N1CC[C@H]2COC(=O)N2c2cc(F)ccc2C1 -1.42% [at 57.5 µM], CC(C)c1ccc(N2C(=O)N[C@@H]3CCN(S(=O)(=O)c4cccs4)[C@@H]3C2=O)cc1 1.99% [at 57.5 µM], Cc1noc2nc3c(c(C(=O)N[C@H]4CC[C@H]4N)c12)CCC3 8.23%, Cc1ccc([S+](=O)([O-])N2CCn3c(nnc3-c3ccccc3)C2)cc1 0.0143%, O=C(NCC1CN(Cc2ccncc2)CC12CN(c1ccccc1)C2)Nc1ccccc1 (configuration not stated) -1.7% [at 57.5 µM], CCCN1CC2(CCN(Cc3cn[nH]c3C(=O)O)CC2)CC1C(=O)O (configuration not stated) 32.3%, CC(C)NC(=O)N[C@H]1CCN(C(=O)c2cnccn2)[C@@H]1C(=O)N[C@@H](Cc1cccs1)C(N)=O 3.59%, Cc1ccc(-n2nc3n(c2=O)CCN(C(=O)c2ccccc2C)C3)cc1 -0.0608% [at 57.5 µM], Cc1ccccc1-c1[nH]nc2ncc(-c3cn[nH]c3)nc12 3.81% [at 76.7 µM], Cc1cnn(Cc2cc(C(=O)N3CCCCCC3c3nnc(-c4ccccc4)o3)no2)c1 (configuration not stated) 10.9%, CC1=C[C@@H](CNS(C)(=O)=O)[C@H](C(C)C)C[C@H]1Cc1nc2ccc(Cl)cc2[nH]1 5.83% [at 57.5 µM], COC(=O)c1cc2n(n1)CCN(C(=O)c1cccc3c1OCC3)C2 0.0731%, CNC(=O)[C@@H](Cc1ccccc1)N1CCC[C@H]1C(=O)N1CCCCC1 1.5% [at 57.5 µM], C#CCNC(=O)c1onc(-c2ccc(F)cc2)c1[C@H](C)O 32.7% [at 76.7 µM], O=C1NC(=O)C(c2ccc(-c3ccc4nc[nH]c(=O)c4c3)cc2)N1 (configuration not stated) 7.87%, COc1ccc(C(=O)NCC2(COc3ccc(S(C)(=O)=O)cc3)C[C@@H](O)[C@@H](O)C2)cc1 (some centres not stated) 2.29%, CC(C)(C)c1coc([C@@H]2COCCN2Cc2ccc(F)cc2)n1 -0.0731% [at 57.5 µM], N#Cc1cccc(CN2CC[C@H](c3nnc(-c4ccco4)o3)C2)c1 0.792% [at 57.5 µM], CCOc1ccc(C(=O)N2CCC3(CC2)N(C)C(=O)CS3(=O)=O)cc1 0.778%, O=C1N[C@@H]2CCN(S(=O)(=O)c3ccccc3)[C@@H]2C(=O)N1c1ccc(F)cc1 1.24% [at 57.5 µM], Cc1ccc(CN2CC[C@@H]3[C@H]2C(=O)NC[C@H](CCC(=O)N2CCCC2)N3C)cc1 9.64% [at 57.5 µM], CC(=O)N[C@H]1C[C@@H](c2cnc3ccccc3c2)O[C@@H](C2CCCCC2)C1 1.55%, Cc1ccc(S(=O)(=O)NC[C@H]2OC[C@@H](NCC(C)(C)C)[C@@H]2O)cc1 -0.0117% [at 57.5 µM], COCC(=O)N1CC2(Cc3ccccc3N(C(C)=O)C2)C1 0.591% [at 57.5 µM], CN1[C@@H](CCC(=O)N2CCc3ccccc32)CNC(=O)[C@@H]2[C@H]1CCN2Cc1ccc(O)cc1 1.1%, COCC[C@]1(O)CCN(C(=O)c2cccc(OC)c2C)C[C@H]1C 0%, Cn1ccc2c(C(=O)NCc3cccnc3)nc(-c3ccc(CO)cc3)cc21 0.607% [at 57.5 µM], C[C@]1(O)CCN(C(=O)c2cnn3cc(CCO)cnc23)C[C@@H]1O -2.74%, O=C(c1ccc(Cn2cnnn2)cc1)N1CCC2(CC1)[C@H](O)C[C@@H]2OCCO 1.04%, CCCCCC(=O)N1CC[C@@H](CC(=O)NCc2cccs2)[C@@H](CC)C1 2.79% [at 57.5 µM], COc1ccc(S(=O)(=O)NC[C@H]2COCc3nc4c(C)cccc4n32)cc1 1.7% [at 57.5 µM], Cc1cn2c(=O)cc(CN3CC(=O)N(C)c4ccccc4C3=O)nc2s1 -1.51%, CC(C)(O)CCc1cccc(C(=O)NC2CCN(c3ncccc3C#N)CC2)c1 -3.17%, CC1(C)[C@H](Cc2cc(CC3CCCCC3)on2)C[C@@H]1NC(=O)c1ccccc1 2.19% [at 57.5 µM], O=C(Nc1ccc([C@@H](O)[C@H]2COCC(=O)N2Cc2ccc(F)cc2)cc1)c1ccccc1 2.6% [at 57.5 µM], CN(C)C(C(=O)N1CCN(c2ncccc2C#N)CC1)c1cccc(F)c1 (configuration not stated) 2.61%, CNc1cccnc1OC1CCN(S(=O)(=O)c2ccc3c(c2)CCC3)C1 (configuration not stated) 0.362%, CCc1n[nH]c(CC2CCN(C(=O)COc3ccc(F)cc3)CC2)n1 0.561%, COC(=O)c1ccc2c(c1)nc1n2[C@@H](CNC(=O)NC2CCCCC2)COC1 -0.992% [at 57.5 µM], COc1ccc2[nH]c(C(=O)N3CCn4nc(CO)cc4C3)c(C)c2c1 9.12%, c1ccc(Nc2cc3c(cn2)NCCN(Cc2ccccn2)C3)cc1 16.8% [at 57.5 µM], Cc1ccc(CN2CC[C@H](c3nc4cc(C)ccc4o3)C2)cc1 -0.245% [at 57.5 µM], CC[C@@H](NC(=O)c1cc(S(N)(=O)=O)ccc1C)C1CC(O)C1 (some centres not stated) 0.0363%, CC1(C(=O)NCc2ccncc2)CCc2cnc(NCc3ccccc3)nc21 (configuration not stated) 0.467% [at 57.5 µM], O=C(O)Cn1ccc2cc(OCc3cccc(-c4ccncc4)c3)cnc21 19.6% [at 57.5 µM], COc1cccc(-c2cc(C(=O)O)cc(S(=O)(=O)N3CCSCC3)c2)c1 -0.198%
